Assay results from PubChem BioAssay AID463173 (ICCB-Longwood Screening Facility, Harvard Medical School, 2010).
Hit rate of the full screen: of about 52,000 compounds, about 1,700 (3.3%) were called active. Rule as the data show it: active = survival mostly below about 52% (no sharp cut-off); inactive = mostly above about 56%. Some of the results follow.

tested on: Wild type; assay: growth inhibition of S. aureus wild type versus tarO mutant, primary screen, teichoic acid synthesis inhibitors, RN4220, OD600 (AID 463173); conditions: S. aureus RN4220 wild type/DeltatarO growth, OD600, 18 h, stronger effect = lower value, screened at 18.75 µg/mL (by protocol)

Structure (SMILES)	survival
CCOC(=O)c1ccc(NS(=O)(=O)c2ccc3c(c2)OCCO3)cc1	inactive: 77%
COc1ccc(OC)c(CCNC(=O)Cn2ccc3cc(S(=O)(=O)N4CCCCC4)ccc32)c1	inactive: 87%
c1ccc2c(c1)c1ccccc1n2CN1CCOCC1	inactive: 114%
CCN(CC)c1ccc(NC(=O)c2sc3ccccc3c2Cl)cc1	active: 15%
COc1ccc(OC)c(-c2noc(N3CCN(c4cc(C)ccc4C)CC3)n2)c1	inactive: 76%
CCOC(=O)c1cc(OC(=O)c2ccc(OC)cc2)n(-c2ccccc2)n1	inactive: 74%
COc1ccc(NC(=O)C(Cc2ccccc2)NS(=O)(=O)c2ccc3c(c2)CCN3C(C)=O)cc1 (stereo not given)	inactive: 79%
Cc1ccc(C)c(CNC(=O)c2ccc3c(c2)nc2n3CCC(C)C2)c1 (stereo not given)	inactive: 90%
Cc1ccc(N(C)S(=O)(=O)c2nnc(NC(=O)CC(C)C)s2)cc1	inactive: 87%
COc1ccccc1-c1cc2nc(C)c(CCC(=O)NCCc3ccc(SC)cc3)c(C)n2n1	inactive: 135%
CCCn1c(=N)c(C(=O)NCc2cccnc2)cc2c(=O)n3ccccc3nc21	inactive: 73%
Cc1ccc(Cn2nnc3c(=O)[nH]c(C(=O)NC(C)(C)C)nc32)cc1	inactive: 119%
CCOC(=O)Cc1ccc(NC(=O)Nc2cc3c(cc2N2CCCCC2)n(C)c(=O)n3C)cc1	inactive: 84%
COc1ccc(-n2cc(C(=O)Nc3cc(F)ccc3F)c3ccccc3c2=O)cc1	inactive: 78%
O=C(Nc1ccc(F)cc1F)c1ccc2c(c1)CCN2S(=O)(=O)c1ccc(Cl)cc1	inactive: 81%
CCOC(=O)c1cc2c(=O)n3ccccc3nc2n(C)c1=NC(=O)c1c(-c2ccccc2Cl)noc1C	inactive: 147%
Cc1ccc(NC(=O)Cn2c(=O)ccc3cc(S(=O)(=O)N4CCC(C)CC4)ccc32)c(C)c1	inactive: 69%
O=C(NCc1ccco1)Nc1c[nH]c2ccc(F)cc2c1=O	inactive: 113%
CC1=Nc2ccc(N)cc2C1(C)C	inactive: 99%
CCOc1ccc(CNC(=O)Cn2ccc3cc(S(=O)(=O)N4CCCCCC4)ccc32)cc1	inactive: 121%
CCCCOC(=O)c1ccc(NC(=O)CC2NCCNC2=O)cc1 (stereo not given)	inactive: 71%
COc1ccc2oc(=O)c(C(=O)Nc3cccc(C(=O)O)c3)cc2c1	inactive: 68%
COc1cccc(CNC(=O)C2CCN(Cc3cc4ccccc4n3Cc3ccc(C)cc3)CC2)c1	inactive: 92%

Structure (SMILES)	survival
COc1cc(-c2cc3n(C)c(C)c(CCC(=O)NCc4ccccc4)c(=O)n3n2)cc(OC)c1OC	inactive: 81%
Cc1nc2c(-c3ccccc3)c(C)nn2c(C)c1CCC(=O)NCc1ccc(Cl)cc1	inactive: 91%
COc1ccc(CCNS(=O)(=O)c2ccc(N3CCCCS3(=O)=O)cc2)cc1OC	inactive: 68%
CC(C(=O)c1ccccc1)C1(O)C(=O)Nc2ccccc21 (stereo not given)	inactive: 88%
Cc1ccc(Cn2c(CCCNC(=O)c3ccco3)nc3ccccc32)cc1	inactive: 95%
Cc1ccc(CNC(=O)CCCN2C(=O)CCn3nc(-c4cn(C)c5ccccc45)cc32)cc1	inactive: 76%
CCOC(=O)c1ccc(NC(=O)c2nc(SC(C)C)ncc2Cl)cc1	inactive: 105%
CS(=O)(=O)N(CC(=O)NCCSCc1ccccc1)c1cc(C(F)(F)F)ccc1Cl	inactive: 133%
O=C(Cn1cnc2onc(-c3ccc(F)cc3)c2c1=O)Nc1cccc(C(F)(F)F)c1	inactive: 124%
COc1ccc(NC(=O)CC2C(=O)N(c3ccccc3)C(=O)N2C2CCCCC2)cc1 (stereo not given)	inactive: 70%
CCOC(=O)c1nnn(CC(=O)Nc2cc(C)cc(C)c2)c1C(=O)OCC	inactive: 89%
COc1ccccc1CNC(=O)c1cc2cccc3c2n1CC(C)S3 (stereo not given)	inactive: 124%
CCc1ccc(NC(=O)N2c3ccccc3Sc3ccccc32)cc1	active: 1%
Cc1ccc(C)c(Cn2cnc3c(cnn3-c3ccc(F)cc3)c2=O)c1	inactive: 77%
CCN(Cc1ccccc1)S(=O)(=O)c1ccc2c(c1)CCCN2C(C)=O	inactive: 78%
C=CCn1c(SCC(O)Cn2c3ccccc3c3ccccc32)nnc1-c1ccco1 (stereo not given)	inactive: 134%
Cn1nc(C(=O)NCc2ccc(F)cc2)c2c1-c1ccccc1SC2	inactive: 70%
Cc1cc(-c2ccccc2)n2nc(-c3cccc(Br)c3)cc2n1	inactive: 55%
CC1CCN(C(=O)CN2c3ccc(C(C)C)cc3-c3ccccc3S2(=O)=O)CC1	inactive: 88%
COc1nc(N(C)C)nc(N(C#N)CN2C(=O)c3ccccc3S2(=O)=O)n1	inactive: 109%
Cc1ccc(-c2c(C(=O)NCc3ccc(F)cc3)oc(=O)c3ccccc23)cc1	inactive: 76%
C=CCNc1nc(NCCN2CCOCC2)nc(OC)n1	inactive: 105%
Cc1ccccc1NC(=O)Cn1c(=O)n(Cc2ccc3c(c2)OCO3)c(=O)c2ccc(C(=O)NC3CCCCC3)cc21	inactive: 82%

Structure (SMILES)	survival
CC(C)CN(CCNC(=O)c1cn(C)c2ccc(S(=O)(=O)N3CCOCC3)cc2c1=O)CC(C)C	inactive: 82%
COc1ccc(CCCc2nnc(SCC(=O)Nc3ccc(F)cc3)o2)cc1C	inactive: 74%
CSCCC(NS(=O)(=O)c1ccc2c(c1)oc(=O)n2C)C(=O)NCc1ccccc1 (stereo not given)	inactive: 95%
Cc1ccc2cccc(NC(=O)c3ccc(-c4cccc(Cl)c4Cl)o3)c2n1	inactive: 63%
CC(C)N(C(=O)CSc1nnc(-c2ccco2)n1C)C(C)C	inactive: 101%
Cc1cc(C)cc(NC(=O)c2oc3ccc4c(c3c2C)C(=O)CC(C)(C)O4)c1	inactive: 89%
COc1ccc2c(c1)c1c(c(=O)n(Cc3ccccc3)c(=O)n1CC(=O)NCc1ccc(C)cc1)n2C	inactive: 82%
CSc1ccc(C(=O)Nc2ccc(-c3nc4ccccc4s3)c(O)c2)cc1	active: 0%
CCC(=O)N1CCc2cc(S(=O)(=O)CCC(=O)N3CCN(c4cccc(Cl)c4)CC3)ccc21	inactive: 69%
O=C(NCc1ccc(F)cc1)C1CCCCN1S(=O)(=O)c1ccc(F)cc1 (stereo not given)	active: 0%
N=c1n(CCN2CCCCC2)c2ccccc2n1CC(O)COc1ccccc1 (stereo not given)	inactive: 144%
Cc1ccc(C)c(N2CCN(C(=O)c3ccc(Nc4nc5ccccc5n5nnnc45)cc3)CC2)c1	inactive: 90%
COc1ccc(N2CCN(C(=O)CCC(=O)NNc3nc4ccccc4c4nc(C)nn34)CC2)cc1	inactive: 90%
CCC(=O)N1CCN(C(=O)CC)C1c1ccccc1	inactive: 99%
COc1cc(OC)c(NC(=O)Cn2c(=O)cc(C)c3c(C)nn(-c4ccc(C)cc4)c32)cc1Cl	inactive: 152%
CSc1ccc(-c2nc3c(C)cccn3c2Nc2ccc3c(c2)OCCO3)cc1	inactive: 84%
Cc1ccccc1NC(=O)C1C(c2cccs2)C(C#N)=C(SCC(N)=O)NC1(C)O (stereo not given)	inactive: 102%
CCOC(=O)c1cc(C)n(CC2CCC(C(=O)Nc3ccc(C)cc3)CC2)c1C (stereo not given)	inactive: 88%
CCc1ccc(NC(=O)c2ccc3nc(C(C)C)oc3c2)cc1	inactive: 66%
CCNC(=O)c1ccc(CSc2nc3cccnc3n2Cc2ccc(OC)cc2)cc1	active: -3%
c1cncc(-c2noc(C3CCCCC3)n2)c1	inactive: 103%
CCOC(=O)N1CCC2(CC1)OC(=O)C(C)=C2C(=O)NCc1ccc(C)cc1	inactive: 65%
COC(=O)Cn1ccc2cc(S(=O)(=O)N3CCCCCC3)ccc21	inactive: 75%

Structure (SMILES)	survival
Clc1ccccc1CNC12CN3CN(CN(C3)C1)C2	inactive: 115%
CCC1CCc2nc3sc(C(=O)Nc4ccc(C)cc4C)c(N)c3cc2C1 (stereo not given)	inactive: 79%
Cn1c(SCC(N)=O)nnc1-c1ccc(S(=O)(=O)N2CCCC2)cc1	inactive: 108%
O=C(NCCc1csc(-c2cccc(F)c2)n1)c1ccccc1C(F)(F)F	inactive: 70%
CCN(C(=O)CN1C(=O)COc2ccc(S(=O)(=O)N3CCOCC3)cc21)c1cccc(C)c1	inactive: 100%
O=C(c1cn(-c2ccccc2)nc1-c1cccnc1)N1CCCCC1	inactive: 107%
Cc1nn(CC(=O)N2CCC(C)CC2)c(=O)c2cc3occc3n12	inactive: 81%
O=C(NCC1CCCO1)c1ccc(S(=O)(=O)N2CCCCC2)cc1 (stereo not given)	inactive: 108%
Cc1cccc(-c2nc(CN3CCCC(C(=O)NCc4ccc(Cl)cc4)C3)c(C)o2)c1 (stereo not given)	active: 2%
COC(=O)c1ccc(NC(=O)Cn2c(-c3nonc3N)nc3ccccc32)cc1	inactive: 157%
CCCc1cnc2c(c1SCC(=O)Nc1c(C)cc(C)cc1C)c(=O)n(C)c(=O)n2C	inactive: 87%
CCc1nn(-c2ccccc2)c2nc(-c3ccc(O)cc3)c3cc(OC)c(OC)cc3c12	inactive: 81%
COc1cccc(NC(=O)N(Cc2c[nH]c3ccccc23)C2CCCCCC2)c1	inactive: 63%
CN(C(=O)c1cc2c(Cl)nc3ccccc3c2s1)c1cccc(C(F)(F)F)c1	inactive: 80%
CCn1c(C(=O)Nc2c(C)cccc2C)cc2sc(Cl)cc21	inactive: 75%
COC(=O)C(NC(=O)c1ccccc1)=C1C=C(C)OC(C)=C1	inactive: 108%
O=C(Cn1nc(-c2ccccc2)c2c(c1=O)CCCC2)Nc1ccc(F)c(Cl)c1	inactive: 44%
COc1cccc(-c2noc(COc3ccc(C(C)(C)C)cc3)n2)c1	inactive: 86%
Cc1ccccc1NS(=O)(=O)c1ccc2[nH]cc(C(=O)NC3CCCCC3)c(=O)c2c1	inactive: 80%
CC(C)/C=N/NC(=O)c1ccc2c(c1)NC(=O)C(C)(C)O2	inactive: 108%
CCn1c(=O)c2cc(C(=O)NC3CCC(C)CC3)sc2c2ccccc21 (stereo not given)	inactive: 92%
